Results are given in words; binding and its absence hold for the method and conditions named. For part of these data: Binding seen in cells or lysates may run through a third protein. Some entries that bind do so weakly or less than the wild type. For part of these data: Tags and fused reporters may be left off the sequences shown.
Key:
[1] = target: T1, fly HA-tagged Warts (Wts) (Drosophila) (UniProt Q9VA38); assay: co-IP; Drosophila S2R+ cells co-expressing myc-MOB1A variants and HA-tagged Wts, Trc or Hpo; IP with anti-HA, blot anti-myc; low-stringency buffer
T1 sequence: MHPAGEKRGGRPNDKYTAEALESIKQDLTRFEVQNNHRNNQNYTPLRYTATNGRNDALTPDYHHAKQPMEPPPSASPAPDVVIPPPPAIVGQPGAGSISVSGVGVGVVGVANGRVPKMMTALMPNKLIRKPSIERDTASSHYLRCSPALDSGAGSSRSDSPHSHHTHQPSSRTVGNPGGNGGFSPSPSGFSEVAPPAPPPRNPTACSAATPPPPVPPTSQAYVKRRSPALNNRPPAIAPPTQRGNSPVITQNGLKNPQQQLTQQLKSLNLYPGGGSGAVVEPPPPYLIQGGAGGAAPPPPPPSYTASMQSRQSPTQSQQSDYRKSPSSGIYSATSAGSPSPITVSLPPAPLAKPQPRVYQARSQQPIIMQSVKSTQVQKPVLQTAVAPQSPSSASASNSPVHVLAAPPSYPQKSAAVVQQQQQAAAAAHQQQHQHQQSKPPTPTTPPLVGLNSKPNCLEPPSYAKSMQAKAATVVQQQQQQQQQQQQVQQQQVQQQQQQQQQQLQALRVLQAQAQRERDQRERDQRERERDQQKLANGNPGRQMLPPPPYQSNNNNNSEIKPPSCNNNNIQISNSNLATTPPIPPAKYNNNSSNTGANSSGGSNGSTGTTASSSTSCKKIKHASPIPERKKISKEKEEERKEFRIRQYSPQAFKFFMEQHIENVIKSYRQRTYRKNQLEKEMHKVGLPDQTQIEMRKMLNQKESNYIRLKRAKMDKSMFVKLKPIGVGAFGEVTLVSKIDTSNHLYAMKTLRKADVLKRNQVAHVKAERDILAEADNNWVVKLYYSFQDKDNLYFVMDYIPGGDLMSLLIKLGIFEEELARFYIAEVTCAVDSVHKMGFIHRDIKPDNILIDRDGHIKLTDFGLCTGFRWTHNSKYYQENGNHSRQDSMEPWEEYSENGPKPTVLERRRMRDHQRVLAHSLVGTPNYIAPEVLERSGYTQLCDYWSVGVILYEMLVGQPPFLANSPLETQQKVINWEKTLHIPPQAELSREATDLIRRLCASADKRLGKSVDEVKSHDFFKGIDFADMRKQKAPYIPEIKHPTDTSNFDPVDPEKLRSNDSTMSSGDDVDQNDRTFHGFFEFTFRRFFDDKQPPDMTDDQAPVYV

By UniProt entry, the sequences of proteins in these tests, tags left out. Residues count along the entry.
UniProt Q9NBK5: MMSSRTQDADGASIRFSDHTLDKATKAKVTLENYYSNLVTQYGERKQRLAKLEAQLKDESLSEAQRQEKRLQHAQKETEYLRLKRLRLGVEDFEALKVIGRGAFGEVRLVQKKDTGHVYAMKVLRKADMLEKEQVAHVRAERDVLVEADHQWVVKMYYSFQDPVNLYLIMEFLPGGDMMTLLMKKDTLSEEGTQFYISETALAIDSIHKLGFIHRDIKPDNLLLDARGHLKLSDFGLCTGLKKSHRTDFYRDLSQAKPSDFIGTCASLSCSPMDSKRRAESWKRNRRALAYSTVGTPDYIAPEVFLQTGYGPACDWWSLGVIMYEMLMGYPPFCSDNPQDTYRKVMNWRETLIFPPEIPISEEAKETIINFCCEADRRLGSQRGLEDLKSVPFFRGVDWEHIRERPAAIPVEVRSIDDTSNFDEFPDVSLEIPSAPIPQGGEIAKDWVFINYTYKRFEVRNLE
UniProt Q9Y2H1, residues 25-88: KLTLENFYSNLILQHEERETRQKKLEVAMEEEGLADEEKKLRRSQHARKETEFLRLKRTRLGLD

[2] = target: T2, full-length HA-Hpo(wt) (Drosophila) (UniProt Q8T0S6); assay: as above
T2 sequence: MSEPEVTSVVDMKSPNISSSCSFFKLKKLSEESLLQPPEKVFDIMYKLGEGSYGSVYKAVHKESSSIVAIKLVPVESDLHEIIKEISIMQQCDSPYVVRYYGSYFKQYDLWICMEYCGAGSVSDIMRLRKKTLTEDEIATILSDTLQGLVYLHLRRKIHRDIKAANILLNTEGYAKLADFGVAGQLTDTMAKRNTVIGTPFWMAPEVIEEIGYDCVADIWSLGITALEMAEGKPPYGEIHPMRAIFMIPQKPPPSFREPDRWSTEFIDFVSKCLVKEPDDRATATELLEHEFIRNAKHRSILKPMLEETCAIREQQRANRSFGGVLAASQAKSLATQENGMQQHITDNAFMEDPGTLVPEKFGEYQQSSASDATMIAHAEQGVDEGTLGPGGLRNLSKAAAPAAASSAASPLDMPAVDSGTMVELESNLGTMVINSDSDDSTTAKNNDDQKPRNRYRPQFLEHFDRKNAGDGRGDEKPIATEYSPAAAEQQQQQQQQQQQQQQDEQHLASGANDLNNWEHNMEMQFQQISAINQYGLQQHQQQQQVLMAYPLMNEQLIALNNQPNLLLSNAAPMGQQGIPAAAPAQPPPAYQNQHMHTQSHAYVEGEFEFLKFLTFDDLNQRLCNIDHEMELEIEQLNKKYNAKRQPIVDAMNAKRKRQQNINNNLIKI

[3] = target: fly HA-tagged Tricornered (Trc) (Drosophila) (UniProt Q9NBK5); assay: as above
[4] = target: T3, human MST2 (residues 2-392) (human) (UniProt Q13188); assay: SEC; purified full-length MOB1 proteins incubated with NDR2 (25-88), LATS1 (618-697) or MST2 (2-392) at 4 °C for 20 min in assembly buffer (20 mM Tris pH 8.0, 200 mM NaCl, 5 mM DTT); HiLoad 16/60 Superdex 200; fractions by SDS-PAGE and Coomassie; for LATS1 MOB1A was first phosphorylated by MST2 (2-308); both purified
T3 sequence: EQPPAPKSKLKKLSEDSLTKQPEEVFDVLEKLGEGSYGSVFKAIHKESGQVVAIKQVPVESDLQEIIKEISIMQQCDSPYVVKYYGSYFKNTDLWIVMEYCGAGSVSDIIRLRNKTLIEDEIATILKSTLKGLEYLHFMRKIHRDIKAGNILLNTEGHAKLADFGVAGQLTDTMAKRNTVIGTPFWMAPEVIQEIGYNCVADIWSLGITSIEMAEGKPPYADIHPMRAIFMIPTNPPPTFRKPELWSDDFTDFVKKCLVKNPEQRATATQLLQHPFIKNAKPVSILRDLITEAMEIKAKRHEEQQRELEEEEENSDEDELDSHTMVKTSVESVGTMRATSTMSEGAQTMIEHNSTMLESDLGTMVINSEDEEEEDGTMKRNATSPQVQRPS

[5] = target: human NDR2 (residues 25-88), N-terminal regulatory domain (NTR) (human) (UniProt Q9Y2H1); assay: ITC; 25 °C, ITC200; 25 mM HEPES pH 7.5, 200 mM NaCl, 1 mM EDTA; ~240 μM MOB1A injected (20 x 2 μl) into ~24 μM NDR1, NDR2, LATS1 or LATS2 fragment in the cell; single-site model; both purified

Binder | binding [1] | binding [2] | binding [3] | binding [4] | binding [5]
myc-tagged full-length human MOB1A(D63V) (Drosophila S2R+ cells) (protein, UniProt Q9H8S9 1-216) MSFLFSSRSSKTFKPKKNIPEGSHQYELLKHAEATLGSGNLRQAVMLPEGEDLNEWIAVNTVVFFNQINMLYGTITEFCTEASCPVMSAGPRYEYHWADGTNIKKPIKCSAPKYIDYLMTWVQDQLDDETLFPSKIGVPFPKNFMSVAKTILKRLFRVYAHIYHQHFDSVMQLQEEAHLNTSFKHFIFFVQEFNLIDRRELAPLQELIEKLGSKDR | no binding | binds | binds | – | –
myc-tagged full-length human MOB1A(K104E/K105E) (Drosophila S2R+ cells) (protein, UniProt Q9H8S9 1-216) MSFLFSSRSSKTFKPKKNIPEGSHQYELLKHAEATLGSGNLRQAVMLPEGEDLNEWIAVNTVDFFNQINMLYGTITEFCTEASCPVMSAGPRYEYHWADGTNIEEPIKCSAPKYIDYLMTWVQDQLDDETLFPSKIGVPFPKNFMSVAKTILKRLFRVYAHIYHQHFDSVMQLQEEAHLNTSFKHFIFFVQEFNLIDRRELAPLQELIEKLGSKDR | binds | no binding | binds | – | –
myc-tagged full-length human MOB1A wild-type (Drosophila S2R+ cells) (protein, UniProt Q9H8S9 1-216) MSFLFSSRSSKTFKPKKNIPEGSHQYELLKHAEATLGSGNLRQAVMLPEGEDLNEWIAVNTVDFFNQINMLYGTITEFCTEASCPVMSAGPRYEYHWADGTNIKKPIKCSAPKYIDYLMTWVQDQLDDETLFPSKIGVPFPKNFMSVAKTILKRLFRVYAHIYHQHFDSVMQLQEEAHLNTSFKHFIFFVQEFNLIDRRELAPLQELIEKLGSKDR | binds | binds | binds | – | –
unphosphorylated full-length MOB1A(K104E/K105E), recombinant (protein, UniProt Q9H8S9 1-216) MSFLFSSRSSKTFKPKKNIPEGSHQYELLKHAEATLGSGNLRQAVMLPEGEDLNEWIAVNTVDFFNQINMLYGTITEFCTEASCPVMSAGPRYEYHWADGTNIEEPIKCSAPKYIDYLMTWVQDQLDDETLFPSKIGVPFPKNFMSVAKTILKRLFRVYAHIYHQHFDSVMQLQEEAHLNTSFKHFIFFVQEFNLIDRRELAPLQELIEKLGSKDR | – | – | – | no binding | –
MOB1(Q67A) (protein, UniProt Q9H8S9 1-216) MSFLFSSRSSKTFKPKKNIPEGSHQYELLKHAEATLGSGNLRQAVMLPEGEDLNEWIAVNTVDFFNAINMLYGTITEFCTEASCPVMSAGPRYEYHWADGTNIKKPIKCSAPKYIDYLMTWVQDQLDDETLFPSKIGVPFPKNFMSVAKTILKRLFRVYAHIYHQHFDSVMQLQEEAHLNTSFKHFIFFVQEFNLIDRRELAPLQELIEKLGSKDR | – | – | – | – | no binding (tested: ~240 μM MOB1A injected into ~24 μM NDR2)
MOB1(H185A) (protein, UniProt Q9H8S9 1-216) MSFLFSSRSSKTFKPKKNIPEGSHQYELLKHAEATLGSGNLRQAVMLPEGEDLNEWIAVNTVDFFNQINMLYGTITEFCTEASCPVMSAGPRYEYHWADGTNIKKPIKCSAPKYIDYLMTWVQDQLDDETLFPSKIGVPFPKNFMSVAKTILKRLFRVYAHIYHQHFDSVMQLQEEAHLNTSFKAFIFFVQEFNLIDRRELAPLQELIEKLGSKDR | – | – | – | – | no binding (tested: ~240 μM MOB1A injected into ~24 μM NDR2)

Reference: article PMC5612953, “Stable MOB1 interaction with Hippo/MST is not essential for development and tissue growth control” (Nature Communications, 2017)
